Test results taken from the supplement of paper PMC9151546.
Most values come without repeats; read them as rough.

What was measured:
CHO-K1 [1] = assay: relative survival (nuclei to bead ratio vs DMSO control) (% of vehicle control); higher = more surviving cells
Procedure: (§1)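 Flow-cytometric in vitro micronucleus assay (Litron MicroFlow) in CHO-K1 cells in 96-well plates, 19 concentrations (4.5-200 µM, n=1 per concentration). Without S9, cells were exposed for 24 h and sampled at 48 h. With Aroclor 1254-induced rat liver S9, cells were exposed for 3-4 h and sampled at 27-28 h. Read-outs are %MN and %hypodiploid nuclei relative to nucleated events, and relative survival as the nuclei-to-bead ratio versus the 1% DMSO vehicle control (x100).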

CHO-K1 [2] = assay: micronucleus frequency (% of nucleated events); higher = more micronuclei (genotoxic)
CHO-K1 [3] = assay: hypodiploid nuclei frequency (% of nucleated events); higher = more hypodiploid events (aneugenic)
Procedure: as §1
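Wherever hypodiploid nuclei frequency (% of nucleated events) is given: hypodiploid nuclei gated on a flow cytometer with 488 nm excitation after SYTOX Green staining, cultures at 37 °C, positive controls vinblastine without S9 and cyclophosphamide with S9.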
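Wherever micronucleus frequency (% of nucleated events) is given: cells lysed with nuclei stained by SYTOX Green, then micronucleus-gated events counted against nucleated events by flow cytometry with 488 nm excitation.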
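Wherever relative survival (nuclei to bead ratio vs DMSO control) is given: Lysed-cell nuclei stained with SYTOX Green and counted against counting beads by flow cytometry at 488 nm excitation, with vinblastine (no S9) and cyclophosphamide (plus S9) as positive controls.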

CN(C)C(=O)Nc1ccc(Cl)cc1 [Monuron]
Conditions | hypodiploid nuclei frequency, CHO-K1 [3] [%] | micronucleus frequency, CHO-K1 [2] [%] | relative survival, CHO-K1 [1]
concentration: 4.5 (µM), S9 metabolic activation: with S9, exposure time: 3-4 hours | 0.22 | 2.52 | 80.8
concentration: 4.5 (µM), S9 metabolic activation: without S9, exposure time: 24 hours | 0.78 | 1.28 | 100
concentration: 5.63 (µM), S9 metabolic activation: with S9, exposure time: 3-4 hours | 0.36 | 1.72 | 93.6
concentration: 5.63 (µM), S9 metabolic activation: without S9, exposure time: 24 hours | 0.64 | 1.56 | 108
concentration: 7.04 (µM), S9 metabolic activation: with S9, exposure time: 3-4 hours | 0.28 | 1.5 | 88.5
concentration: 7.04 (µM), S9 metabolic activation: without S9, exposure time: 24 hours | 0.46 | 1.76 | 108
concentration: 8.8 (µM), S9 metabolic activation: with S9, exposure time: 3-4 hours | 0.12 | 1.64 | 66.3
concentration: 8.8 (µM), S9 metabolic activation: without S9, exposure time: 24 hours | 0.8 | 2.28 | 101
concentration: 11 (µM), S9 metabolic activation: with S9, exposure time: 3-4 hours | 0.22 | 1.58 | 79.1
concentration: 11 (µM), S9 metabolic activation: without S9, exposure time: 24 hours | 0.66 | 2.32 | 104
concentration: 13.7 (µM), S9 metabolic activation: with S9, exposure time: 3-4 hours | 0.24 | 1.34 | 74.2
concentration: 13.7 (µM), S9 metabolic activation: without S9, exposure time: 24 hours | 0.64 | 1.68 | 97
concentration: 17.2 (µM), S9 metabolic activation: with S9, exposure time: 3-4 hours | 0.18 | 1.2 | 89.2
concentration: 17.2 (µM), S9 metabolic activation: without S9, exposure time: 24 hours | 0.72 | 2.22 | 113
concentration: 21.5 (µM), S9 metabolic activation: with S9, exposure time: 3-4 hours | 0.26 | 1.3 | 83.2
concentration: 21.5 (µM), S9 metabolic activation: without S9, exposure time: 24 hours | 0.7 | 2.62 | 101
concentration: 26.8 (µM), S9 metabolic activation: with S9, exposure time: 3-4 hours | 0.14 | 1.66 | 71.1
concentration: 26.8 (µM), S9 metabolic activation: without S9, exposure time: 24 hours | 0.8 | 2.14 | 99.1
concentration: 33.6 (µM), S9 metabolic activation: with S9, exposure time: 3-4 hours | 0.34 | 1.84 | 73.9
concentration: 33.6 (µM), S9 metabolic activation: without S9, exposure time: 24 hours | 0.82 | 2.52 | 97.3
concentration: 41.9 (µM), S9 metabolic activation: with S9, exposure time: 3-4 hours | 0.24 | 1.66 | 66.7
concentration: 41.9 (µM), S9 metabolic activation: without S9, exposure time: 24 hours | 0.88 | 2.5 | 84.6
concentration: 52.4 (µM), S9 metabolic activation: with S9, exposure time: 3-4 hours | 0.18 | 1.32 | 64.8
concentration: 52.4 (µM), S9 metabolic activation: without S9, exposure time: 24 hours | 1.22 | 3.14 | 81.1
concentration: 65.5 (µM), S9 metabolic activation: with S9, exposure time: 3-4 hours | 0.2 | 1.24 | 75.4
concentration: 65.5 (µM), S9 metabolic activation: without S9, exposure time: 24 hours | 1.04 | 2.52 | 88.5
concentration: 81.9 (µM), S9 metabolic activation: with S9, exposure time: 3-4 hours | 0.32 | 1.36 | 71.8
concentration: 81.9 (µM), S9 metabolic activation: without S9, exposure time: 24 hours | 0.72 | 2.42 | 81.8
concentration: 102 (µM), S9 metabolic activation: with S9, exposure time: 3-4 hours | 0.26 | 1.2 | 76.7
concentration: 102 (µM), S9 metabolic activation: without S9, exposure time: 24 hours | 1.18 | 2.74 | 94.9
concentration: 128 (µM), S9 metabolic activation: with S9, exposure time: 3-4 hours | 0.17 | 1.45 | 49.3
concentration: 128 (µM), S9 metabolic activation: without S9, exposure time: 24 hours | 1.46 | 3.78 | 63.8
concentration: 160 (µM), S9 metabolic activation: with S9, exposure time: 3-4 hours | 0.12 | 1.48 | 55.6
concentration: 160 (µM), S9 metabolic activation: without S9, exposure time: 24 hours | 1.98 | 3.26 | 78.1
concentration: 200 (µM), S9 metabolic activation: with S9, exposure time: 3-4 hours | 0.26 | 1.89 | 56.1
concentration: 200 (µM), S9 metabolic activation: without S9, exposure time: 24 hours | 2.56 | 2.94 | 72.8
